# The whole screen tested about 310,000 compounds, of which about 14,000 (4.5%) showed an effect of 50% or more. The effect is printed as a negative number. Some of the results follow.
# Biological target: human ether-à-go-go-related gene (hERG) potassium channel (human, UniProt Q12809)
# Test: primary screen, population patch clamp on CHO cells stably expressing hERG
# 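Further: peak tail current of the secondary pulse compared with the same well before compound.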
# human ether-à-go-go-related gene (hERG) potassium channel, sequence (Q12809 whole entry, looked up): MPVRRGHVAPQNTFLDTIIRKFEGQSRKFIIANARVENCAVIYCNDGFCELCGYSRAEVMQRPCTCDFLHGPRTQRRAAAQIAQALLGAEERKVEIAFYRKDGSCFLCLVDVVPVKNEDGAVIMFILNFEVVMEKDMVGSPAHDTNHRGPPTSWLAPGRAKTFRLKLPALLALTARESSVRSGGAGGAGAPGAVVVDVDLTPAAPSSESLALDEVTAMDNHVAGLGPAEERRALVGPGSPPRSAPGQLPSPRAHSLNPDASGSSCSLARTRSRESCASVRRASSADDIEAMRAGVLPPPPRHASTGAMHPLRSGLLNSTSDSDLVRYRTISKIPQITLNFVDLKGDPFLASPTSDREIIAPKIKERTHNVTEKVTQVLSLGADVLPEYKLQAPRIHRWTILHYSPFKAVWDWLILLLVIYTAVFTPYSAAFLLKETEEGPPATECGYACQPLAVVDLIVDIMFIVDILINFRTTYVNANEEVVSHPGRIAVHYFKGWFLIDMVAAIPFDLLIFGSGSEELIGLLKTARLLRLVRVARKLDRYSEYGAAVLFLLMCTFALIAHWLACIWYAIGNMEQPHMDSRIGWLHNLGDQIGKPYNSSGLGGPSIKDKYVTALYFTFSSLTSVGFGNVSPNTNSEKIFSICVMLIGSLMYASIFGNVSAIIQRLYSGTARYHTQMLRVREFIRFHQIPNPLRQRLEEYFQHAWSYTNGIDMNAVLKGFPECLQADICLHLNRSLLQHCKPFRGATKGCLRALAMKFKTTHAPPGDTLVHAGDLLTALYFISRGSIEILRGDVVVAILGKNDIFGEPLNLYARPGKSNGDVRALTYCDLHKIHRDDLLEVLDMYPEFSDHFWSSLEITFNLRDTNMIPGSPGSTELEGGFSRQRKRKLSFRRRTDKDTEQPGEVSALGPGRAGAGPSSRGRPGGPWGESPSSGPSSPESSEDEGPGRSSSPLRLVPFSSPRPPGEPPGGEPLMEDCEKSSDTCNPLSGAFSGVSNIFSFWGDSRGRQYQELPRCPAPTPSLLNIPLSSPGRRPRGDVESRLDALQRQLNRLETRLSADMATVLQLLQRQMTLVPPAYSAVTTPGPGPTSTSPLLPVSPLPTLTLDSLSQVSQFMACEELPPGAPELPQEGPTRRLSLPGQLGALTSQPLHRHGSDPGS
row,SMILES,"hERG current change (%, negative = inhibition) at 10uM [%]"
1,CCOC(=O)C(O)(c1ccc(NC(=O)c2ccco2)c(OC)c1)C(F)(F)F (centres unmarked),-14.6
2,CCOC(=O)CN1C(=O)C(O)=C(C(C)=O)C1c1ccc([N+](=O)[O-])cc1 (centres unmarked),-10.3
3,CN(C)CCNC(=O)c1cccc(NS(=O)(=O)c2ccc(Cl)c(Cl)c2)c1,0.919
4,COc1ccc(N2CCN(C(=O)c3cc4c(s3)-c3ccccc3OC4)CC2)cc1,16.5
5,Cn1c(=O)n(CC(=O)OCc2ccccc2)c(=O)c2c1nc1n2CCCN1C1CCCCC1,-5.15
6,Cc1ccc(-c2nc(CSc3nc4ccccc4c(=O)n3C)cs2)cc1,9.52
7,COc1ccc(CCNC(=O)C(NS(=O)(=O)c2ccc3c(c2)CCN3C(C)=O)C(C)C)cc1OC (centres unmarked),25.1
8,C[n+]1ccc(/C=C/c2c[nH]c3ccccc23)cc1.[I-],5.37
9,COc1ccc(S(N)(=O)=O)cc1C(=O)NCCCN1CCN(c2ccc(C)cc2)CC1,-50.7
10,CCOC(=O)N1CCN(C(=O)COC(=O)c2ccc(O)cc2O)CC1,16.7
11,COc1ccc(O/C(=N\S(=O)(=O)c2ccccc2)c2ccccc2)cc1,2.84
12,CCNC(=O)Nn1c(C)nnc1C,6.41
13,CCc1nnc(NC(=O)CSc2nnc(-c3ccoc3C)n2-c2ccccc2)s1,-3.54
14,COc1ccc(C(=O)NNC(=O)C2(C)CC2(Br)Br)cc1 (centres unmarked),10
15,Cc1n[nH]c(C)c1S(=O)(=O)N1CCC(C(=O)O)CC1.Cl,1.54
16,C=CCn1c(SCC(=O)N2CCc3ccccc3C2)nc2ccccc2c1=O,-61.5
17,C=CCNC(=O)CN(c1cc(Cl)ccc1OC)S(=O)(=O)c1ccc(C)c([N+](=O)[O-])c1,3.12
18,COc1cccc(-c2sc3ccc(OC)cc3c2-c2ccc(O)cc2)c1,15.9
19,CCCNS(=O)(=O)c1cc(Br)cc2c1N(C(=O)CC)CC2,-3.88
20,COc1ccc(/C=N/NC(=O)CN2CCSCC2)cc1C,-1.96
21,O=C1c2cccnc2C(Nc2ccccc2)N1Cc1ccco1 (centres unmarked),-6.24
22,COc1ccc(S(=O)(=O)N2CCOC2CNC(=O)C(=O)NCc2ccco2)cc1OC (centres unmarked),-3.32

row,SMILES,"hERG current change (%, negative = inhibition) at 10uM [%]"
1,COc1ccc(/C=N/NC(=O)c2cccc([N+](=O)[O-])c2)cc1OS(=O)(=O)c1ccccc1,2.23
2,O=[N+]([O-])c1ccccc1-c1cc(-c2ccccc2)cc(-c2ccccc2)[n+]1Cc1ccccc1Cl.[O-][Cl+3]([O-])([O-])[O-],-78.7
3,COc1cccc(-c2nc(CS(=O)(=O)CC(=O)Nc3ccccc3C)c(C)o2)c1,16.6
4,CCc1ccc(CNC(=O)CCS(=O)(=O)Cc2ccc(C)cc2)cc1,6.45
5,Cc1ccc(-c2nnn(CC(=O)N3CCCCC3)n2)c(-n2cnnn2)c1,-2.81
6,Oc1ccc(/C=N/Nc2ncnc3nc[nH]c23)cc1,6.9
7,C=CCN(CC=C)C(=O)Cc1ccc(F)cc1,16.1
8,COc1ccccc1N1C(=O)C2ON(c3ccccc3)C(c3ccc(N(C)C)cc3)C2C1=O (centres unmarked),13.4
9,Cn1cnc2c1c(=O)n(Cc1ccccc1C#N)c(=O)n2C,23
10,CCCc1cc(=O)[nH]c(SCC(=O)c2[nH]c(C)c(C(=O)OCC)c2C)n1,-25
11,CNCC(C)c1ccccc1.Cl (centres unmarked),22.2
12,N/C(Cc1ccc([N+](=O)[O-])cc1)=N\OC(=O)c1ccccc1F,-35.6
13,Cc1ccc(-c2nn(-c3ccccc3)cc2C(=O)NC2CCC(O)CC2)cc1 (centres unmarked),-9.21
14,S=C(NCc1ccco1)Nc1ccccn1,0.917
15,Cc1ccc(OCc2cc(C(=O)N3CCC(C(O)C(C)C)CC3)no2)cc1C (centres unmarked),-23.1
16,COCC(=O)N(CCc1ccc(OC)c(OC)c1)Cc1nc2ccccc2c(=O)[nH]1,-8.28
17,O=C(c1ccco1)N1CCN(C(=O)C2CCCN(S(=O)(=O)Cc3ccccc3)C2)CC1 (centres unmarked),-35.4
18,Cc1ccc(NC(=O)c2sc(N)nc2C)cc1,14.8
19,Cc1ccc(C)c(NS(=O)(=O)c2ccc(OCC(=O)NCc3ccco3)cc2)c1,10.3
20,CN1C(=O)COc2ccc(C(=O)c3ccccc3C(=O)O)cc21,11
21,N#Cc1ccsc1NC(=O)CN1CCOCC1,16.3
22,Cc1ccc(S(=O)(=O)N/N=C/c2c[nH]c3ccccc23)cc1,-5.38

row,SMILES,"hERG current change (%, negative = inhibition) at 10uM [%]"
1,CCOC(=O)c1cc2c(C(F)(F)F)cc(-c3ccccc3)nc2o1,12.8
2,O=C(NCc1ccccc1)c1ccc(-c2ccc(F)cc2)o1,1.02
3,Cc1ccc(C2(C)NC(=O)N(CC(=O)N3CCN(C(=O)c4cccs4)CC3)C2=O)cc1 (centres unmarked),-12.3
4,CCn1c(=N)c(S(=O)(=O)c2ccc(Cl)cc2)cc2c(=O)n3ccccc3nc21,12.7
5,O=C(CN1CC[n+]2c(-c3cccs3)csc21)c1ccc(Br)cc1.[Br-],-45.9
6,COc1ccc(NS(=O)(=O)c2ccc3oc(=O)c4[nH]c(=O)c(=O)n(C)c4c3c2)cc1,15.8
7,COc1ccc(NC(=O)C(CCSC)N2C(=O)c3ccccc3C2=O)cc1 (centres unmarked),-10.3
8,O=C(COC(=O)CNC(=O)c1sc2ccccc2c1Cl)Nc1cc(Cl)cc(Cl)c1,-54.7
9,O=C(CCCn1c(=O)c2ccccc2n(CC(=O)N2CCN(c3ccccc3)CC2)c1=O)NCc1ccco1,-10.2
10,c1ccc2oc(CCc3nc4ccccc4o3)nc2c1,-1.56
11,CS(=O)(=O)N(CC(=O)Nc1ccccc1C(=O)N1CCCC1)c1ccccc1Br,-2.32
12,CC(=O)OC(C(=O)N1CCN(c2ccccc2F)CC1)c1ccccc1 (centres unmarked),-22.3
13,O=C(Nc1cc([N+](=O)[O-])ccc1O)c1cccc([N+](=O)[O-])c1,19.1
14,O=C(O)CCc1ccc(-c2cccs2)n1CC(=O)Nc1ccccc1C(F)(F)F,22.8
15,O=C(CNS(=O)(=O)c1ccccc1)N1CCc2ccccc2C1,4.71
16,O=C(C[n+]1cccc(CNC(=O)c2ccc(OC(F)F)cc2)c1)Nc1cccc(C(F)(F)F)c1.[Cl-],-9.62
17,CCOc1cccc(C(=O)N(Cc2ccco2)C2CCS(=O)(=O)C2)c1 (centres unmarked),-7.48
18,COc1ccc(NC(=O)CCn2c(=O)c3cccn3c3ccccc32)c(OC)c1,8.41
19,Cc1c(C(=O)Nc2cccc(-c3nnc4n3CCCCC4)c2)oc2ccccc12,-4.57
20,CC(C)(C)NC(=O)CSc1nc2ccccc2c(=O)[nH]1,11.7
21,CCC(=O)Nc1ccc2c(c1)nc(CCN1CCCCC1)n2C,7.26
22,Cc1sc2ncn(CC(=O)NCc3ccccn3)c(=O)c2c1S(=O)(=O)N1CCOCC1,3.16

row,SMILES,"hERG current change (%, negative = inhibition) at 10uM [%]"
1,COc1ccc(N(CC(=O)O)S(C)(=O)=O)cc1OC,1.3
2,COc1cccc(CNC(=O)C2CC(=O)N(C3CCCCCCC3)C2)c1 (centres unmarked),9.91
3,CC12COC3(C(=O)Nc4nccs4)CC1CCC32C (centres unmarked),0.557
4,Cc1ccc(NC(=O)Cn2cc3c(n2)CCC(C)C3)cc1 (centres unmarked),7.73
5,CCOC(=O)C1=C(C)N=C2SC(C)C(=O)N2C1c1cccc(F)c1 (centres unmarked),-3.16
6,CCOC(=O)C1=C(C)N=C2SCCC(=O)N2C1c1cccs1 (centres unmarked),-10.2
7,CN(C)S(=O)(=O)c1ccc(C(=O)NCC(c2cccs2)N2CCOCC2)cc1 (centres unmarked),1.61
8,COc1ccc(-c2cc(C(F)(F)F)n3ncc(C(=O)NCC4CCCO4)c3n2)cc1OC (centres unmarked),5.6
9,COc1ccc(Cc2n[nH]c(=S)n(N)c2=O)cc1,13.6
10,N#C/C(=C(/O)c1ccccc1F)c1nc2cc(C(F)(F)F)ccc2s1,20.8
11,Clc1ccc(CO/N=C2\CCCc3nonc32)c(Cl)c1,-10.1
12,O=C(CN1C(=O)C2CCCCC2C1=O)N1CCN(c2ncccn2)CC1 (centres unmarked),4.17
13,Cn1c(CNC(=O)c2ccccc2F)nnc1SCCOc1ccccc1,7.07
14,COCCN(Cc1ccccc1)C(=O)c1ccc2c(c1)NC(=O)CS2,-8.25
15,COc1cc(Cl)c(CN2CCCC(CO)(Cc3ccccc3F)C2)cc1OC (centres unmarked),-20.1
16,CC1CC(C)CN(C(=O)COC(=O)C2CCN(S(=O)(=O)c3ccc4c(c3)OCCO4)CC2)C1 (centres unmarked),-12.5
17,CN=C1S/C(=C\c2cc(C)n(-c3ccccc3F)c2C)C(=O)N1C,5.55
18,CCN(CC)C(CNS(=O)(=O)c1ccc(Cl)cc1)c1ccccc1 (centres unmarked),-17.9
19,COC(=O)C1=C(c2c(C)noc2C)C[C@@H]2CC[C@H]1N2C(=O)NCCCOC(C)C,-12.2
20,Cc1ccc(CNC(=O)c2cccnc2Sc2cccc(Cl)c2)cc1,4.46

# — article PMC4336329 (PLoS ONE, 2015)
